The results in this text go back to paper PMC10790753, “TLR4 sensing of IsdB of Staphylococcus aureus induces a proinflammatory cytokine response via the NLRP3-caspase-1 inflammasome cascade” (mBio, 2023).

One may read the Kd as the equilibrium constant for the complex coming apart.

For this assay, the target named is T1, Human TLR4 recombinant active protein (human, UniProt O00206 part only, labelled with RED-NHS 2nd generation dye (NHS ester on primary amines, degree of labelling 0.8) in the MST; unlabelled in the ELISA).
T1 construct: Toll-like receptor 4, human; without MD-2; also called rhTLR4; recombinant human TLR4; source: bought: Abcam
Description: MST; rhTLR4 labelled with RED-NHS 2nd generation dye, diluted to 40 nM and mixed with an equal volume of each of 16 serial dilutions of IsdB or Lac-IsdB (3.6 µM to 0.1 nM); assay buffer with 0.05% Tween 20; 25°C; Monolith NT.115, 80% LED power, medium MST power; no MD-2. As to conditions: both partners purified.

T1 sequence (O00206 27-631): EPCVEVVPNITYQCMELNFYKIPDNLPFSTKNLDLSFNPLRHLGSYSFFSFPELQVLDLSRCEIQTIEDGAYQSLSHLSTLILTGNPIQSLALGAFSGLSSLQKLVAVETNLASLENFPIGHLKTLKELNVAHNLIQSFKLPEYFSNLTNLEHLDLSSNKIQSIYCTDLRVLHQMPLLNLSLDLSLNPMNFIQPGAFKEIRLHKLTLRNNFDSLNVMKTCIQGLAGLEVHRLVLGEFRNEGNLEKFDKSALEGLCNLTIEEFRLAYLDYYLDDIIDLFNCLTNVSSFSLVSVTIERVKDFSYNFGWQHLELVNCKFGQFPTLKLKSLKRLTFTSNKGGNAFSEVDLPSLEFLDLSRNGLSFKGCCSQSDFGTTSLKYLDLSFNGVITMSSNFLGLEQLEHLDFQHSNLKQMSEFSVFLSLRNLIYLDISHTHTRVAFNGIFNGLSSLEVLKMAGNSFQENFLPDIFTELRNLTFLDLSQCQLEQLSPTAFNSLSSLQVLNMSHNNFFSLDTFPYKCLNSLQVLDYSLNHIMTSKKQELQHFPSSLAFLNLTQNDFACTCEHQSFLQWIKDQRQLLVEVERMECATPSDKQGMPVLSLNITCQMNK

B1: His6-tagged recombinant iron-regulated surface determinant protein B (IsdB) of Staphylococcus aureus, produced in E. coli (natural protein)
chain: not shown
modifications: biotin-conjugated in the ELISA (sites not given); unlabelled in the MST
notes: IsdB, iron-regulated surface determinant protein B, Staphylococcus aureus; plasmid pQE30/pSE111; also called recombinant IsdB; E. coli-derived IsdB; source: E. coli SCS1, purified (Ni2+ sepharose His-trap, LPS depleted with EndoTrap RED)
Turning to B1, the Kd was found to be 98.3 nM.

B2: His6-tagged recombinant IsdB of Staphylococcus aureus, produced in Lactococcus lactis (natural protein)
chain: not shown
notes: IsdB, iron-regulated surface determinant protein B, Staphylococcus aureus; also called Lac-IsdB; source: Lactococcus lactis PA1001, purified from the growth medium fraction (Ni2+ sepharose His-trap, dialysis)
Turning to B2, the dissociation constant (Kd) was determined as 153 nM.
